# Measurements taken from ChEMBL document CHEMBL4888484, “Replenishing the malaria drug discovery pipeline: Screening and hit evaluation of the MMV Hit Generation Library 1 (HGL1) against asexual blood stage Plasmodium falciparum ,using a nano luciferase reporter read-out” (2022).
# In all, about 150,000 compounds went through this assay and about 540 (0.36%) showed an effect of 50% or more. This is one part of the list.
# Test system: Plasmodium falciparum
# Test: Primary screen in NF54 nanoGlo assay, in single point, at 2uM, 72h; a lower Z score goes with more inhibition
# Type: functional, Erythrocyte
# Conditions: timepoint 72 hour
Compound,% Inhibition,Z score
CC(O)(CN1CCCC(N2CCCS2(=O)=O)C1)C(F)(F)F (stereo not drawn),3%,-0.49
CN(CCCNC(=O)[C@H]1CCCN(c2nnc3ccccn23)C1)c1ccccc1,-18%,2
CC(C)N(CC(=O)N1CCn2cccc2[C@H]1c1cccc(Oc2ccccc2)c1)C(=O)c1cccc(F)c1,10%,-1.02
CN(CC(=O)Nc1ccc(F)cc1)C(=O)c1cccc(C(=O)N(C)CC(=O)Nc2ccc(F)cc2)n1,14%,-1.82
CC(=O)NC[C@H]1CCCN(c2nc3nonc3nc2N(C)Cc2ccccc2)C1,8%,-1.61
COc1ccccc1C(=O)Nc1cc(-c2ccccn2)no1,-7%,1.3
COCCN(Cc1ccc(OC)c(OC)c1)CC1CCN(Cc2ccccc2OC)CC1,-6%,1.1
CCOC(=O)N1CCC(NC(=O)c2cn(C[C@H](O)c3ccccc3F)nn2)CC1,-13%,2.49
O=C([C@@H]1C[C@H](F)CN1S(=O)(=O)c1ccc(F)c(F)c1)N1CCc2ccccc2C1,-2%,0.27
COCc1ccc(C(=O)N2C[C@H](OC)C[C@H]2c2nncn2C)cc1,-8%,1.1
CC(CCn1cccn1)NCC1CC=CCC1 (stereo not drawn),-8%,1.17
COc1nn(C)cc1C(=O)N1CCN(c2ccc(-c3cccs3)nn2)CC1,14%,-2.17
Cc1ccc(S(=O)(=O)[C@H]2CS(=O)(=O)C[C@@H]2NC(C)C)cc1,3%,-0.39
Cn1cc(-c2ccc(-n3cnnc3)nc2)cn1,-5%,0.76
COc1cc(NS(=O)(=O)C2CC2)ccc1Cl,11%,-2.04
CN1CC(=O)N[C@@H]2CN(C(=O)c3ccc4c(c3)ncn4CCO)CC[C@@H]2OCc2cccc(c2)Oc2cccc(c2)CCC1=O,15%,-2.02
O=C(Nc1ccc(OCC2CCOC2)cc1)N1CCC2CCCCC21 (stereo not drawn),-8%,0.83
O=C(CN1CCOC[C@@]12CCOC2)Nc1ccc2c(c1)CCC2,-10%,1.2
O=C(NCc1ccc(-c2cccc(Cl)c2)o1)[C@H]1CC[C@H](O)CC1,-19%,1.86
CC1CCC2(CC1)CCN(C(=O)[C@@H]1CCCO1)C2 (stereo partly drawn),-1%,0.23
Cn1ncc(NC(=O)C(C)(C)c2ccc(Cl)cc2F)cc1=O,-6%,0.94
C[C@H]1CC(=O)N(C)c2ccc(NC(=O)NCc3nc(N(C)C)no3)cc21,-2%,0.25
Cc1nc(C(=O)N(C)C)ccc1C(=O)NCCNC1CCCCCC1,-12%,1.88
CC(C)Cc1nc(NC(=O)CNC(=O)c2cnccn2)n[nH]1,-12%,1.5
CC(C)(C)[C@H]1CCCN(c2ccnc(C(N)=O)c2)C1,-8%,0.94
CO[C@@H](CNC(=O)c1ccc(C(=O)O)cc1F)C(C)(C)C,-11%,2.1
Cc1nc(CC(=O)Nc2cnn3c2NCCC3)cs1,1%,-0.14

Compound,% Inhibition,Z score
N#Cc1cccc(N2CC[C@@]3(CCCN(C4CCCCC4)C3=O)C2)n1,1%,-0.26
COc1cc(CNC2CCCCC2)ccc1OCc1cccc(C)c1,29%,-3.31
CC1(C)C[C@H](NC(=O)Nc2nnc(-c3ccsc3)s2)C(C)(C)O1,-9%,1.69
COc1nc(N(C)Cc2cnn(C)c2C)ncc1F,28%,-3.86
O=C(Nc1ccc(S(=O)(=O)N2CCCC2)cc1)C1=Cc2ccccc2OC1,-10%,1.14
COc1ccccc1OCC(=O)N1CCC(=C2CC2)CC1,-23%,2.72
Cc1noc(C)c1C(C)C(=O)NC(C)C1(N2CCOCC2)CCCC1 (stereo not drawn),31%,-3.54
Cn1cc([C@]2(CNC(=O)C3(O)CCCC3)CCCO2)cn1,-15%,2.06
Cn1cc(S(=O)(=O)N(Cc2ccccc2)c2ccncc2)cc1C(N)=O,-6%,0.73
COc1ccc(C)cc1S(=O)(=O)N[C@@H]1Cc2ccccc2[C@H]1N,-2%,0.49
Cc1ncc(CN(C)C(=O)Nc2cccc(-c3nnco3)c2)s1,-11%,1.67
CCc1[nH]nc(-c2cccc(F)c2)c1NC(=O)CC1CCCC1,-21%,2.08
CCOc1ncccc1-c1cccc2cccnc12,-3%,0.36
CCc1ccc([C@@H]2CC(=O)Nc3cc(N4CCCC4)c(C(N)=O)cc32)o1,-18%,1.74
C[C@@H](Cc1ccccc1)C(=O)N1CC(=O)NCC1(C)C,7%,-1.01
Cc1nc2c(C(=O)NC(Cc3ccncc3)[C@H]3C[C@H](O)C3)cccc2[nH]1 (stereo partly drawn),-4%,0.78
O=C(O)c1cnc(C=Cc2csc(-c3ccc(F)cc3)n2)[nH]c1=O,-8%,1.23
Cc1ccc(CC(=O)N2CCC(CCOc3cccnc3)CC2)cc1,-8%,1.45
Cc1ccccc1C(=O)N[C@@H]1CCCC[C@H]1NC(=O)C1CCN(S(=O)(=O)c2ccc(C(C)(C)C)cc2)CC1,-16%,1.53
Cc1ccc(C)c(NC(=O)Cn2nc3cc(C)nc(N4CCCC4)n3c2=O)c1,-23%,2.42
CCOc1ccccc1N1Cc2cccc(OCC)c2OCC1=O,-14%,1.54
CCc1n[nH]c(NS(=O)(=O)c2ccc(C)s2)n1,0%,0.03
COCc1cc(=O)n2c(n1)N(CCc1ccccc1)CC2,-8%,1.56
COC1CCCC1NCCn1cc(Br)cn1 (stereo not drawn),-6%,0.69
Cc1cc(NC(=O)c2ccc3c(c2)OCO3)nc(=O)[nH]1,3%,-0.4
CC1CC1C(=O)N(C)CC1COc2ccccc2O1 (stereo not drawn),-13%,2.44
Cc1cccc(C)c1-n1c(=O)n(C[C@H]2CCCO2)c(=O)c2c1ncn2CC(=O)c1ccc(Cl)cc1,-4%,0.54
